These are yes or no findings as the source states them, for the method shown. Binding seen in cells or lysates may run through a third protein. Some binding calls cover weakened binding; strength is not graded here. Sequences can lack the tags named with a protein.
Legend:
Assay in all cases: co-IP; HEK293T cell lysates doubly transfected with SALM4 (full-length, domains or deletion variants) + SALM2/3/5; immunoprecipitated and immunoblotted with the indicated antibodies (Figs 4d-f and 5c-e)
SALM5-EGFP (Fig. 5e) = target: T1, SALM5-EGFP (Fig. 5e) (UniProt Q8BXA0)
T1 sequence: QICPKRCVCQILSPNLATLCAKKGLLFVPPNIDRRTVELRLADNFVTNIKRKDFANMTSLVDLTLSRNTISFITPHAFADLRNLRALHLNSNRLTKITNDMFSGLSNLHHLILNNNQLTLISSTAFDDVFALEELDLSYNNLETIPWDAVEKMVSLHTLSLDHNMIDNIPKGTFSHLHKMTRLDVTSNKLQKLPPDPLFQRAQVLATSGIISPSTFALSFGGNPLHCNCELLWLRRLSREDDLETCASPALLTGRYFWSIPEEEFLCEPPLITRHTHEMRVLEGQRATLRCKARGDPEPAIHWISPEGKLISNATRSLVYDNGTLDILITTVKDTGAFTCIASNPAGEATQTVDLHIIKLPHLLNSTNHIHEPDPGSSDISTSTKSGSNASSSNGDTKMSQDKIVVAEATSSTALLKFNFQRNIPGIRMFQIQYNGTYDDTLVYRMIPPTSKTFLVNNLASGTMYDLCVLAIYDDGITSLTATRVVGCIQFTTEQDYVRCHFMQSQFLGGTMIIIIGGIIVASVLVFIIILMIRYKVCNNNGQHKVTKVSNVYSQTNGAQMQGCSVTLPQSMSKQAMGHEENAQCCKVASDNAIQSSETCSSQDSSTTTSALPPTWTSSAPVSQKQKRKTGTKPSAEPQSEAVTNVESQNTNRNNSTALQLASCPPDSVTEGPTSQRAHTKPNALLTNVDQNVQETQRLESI

SALM3-EGFP (Fig. 5d) = target: T2, SALM3-EGFP (Fig. 5d) (UniProt Q80XU8)
T2 sequence: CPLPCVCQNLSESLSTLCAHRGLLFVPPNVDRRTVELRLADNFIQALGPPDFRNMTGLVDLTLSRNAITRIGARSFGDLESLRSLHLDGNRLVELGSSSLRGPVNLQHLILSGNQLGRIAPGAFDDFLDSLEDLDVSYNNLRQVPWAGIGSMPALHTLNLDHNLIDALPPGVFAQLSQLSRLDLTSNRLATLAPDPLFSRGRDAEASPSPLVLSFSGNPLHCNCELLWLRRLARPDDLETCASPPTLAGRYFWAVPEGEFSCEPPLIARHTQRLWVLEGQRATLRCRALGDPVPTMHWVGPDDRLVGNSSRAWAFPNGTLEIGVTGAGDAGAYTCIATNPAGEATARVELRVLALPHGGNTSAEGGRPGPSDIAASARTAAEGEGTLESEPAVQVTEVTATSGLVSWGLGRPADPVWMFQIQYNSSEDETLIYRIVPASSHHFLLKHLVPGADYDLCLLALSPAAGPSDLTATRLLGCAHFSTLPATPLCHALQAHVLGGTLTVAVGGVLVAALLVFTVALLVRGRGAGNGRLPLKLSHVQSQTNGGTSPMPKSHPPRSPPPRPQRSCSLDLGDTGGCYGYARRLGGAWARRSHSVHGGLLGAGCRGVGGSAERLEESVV

Myc-SALM2 (Fig. 5c) = target: T3, Myc-SALM2 (Fig. 5c) (UniProt Q2WF71)
T3 sequence: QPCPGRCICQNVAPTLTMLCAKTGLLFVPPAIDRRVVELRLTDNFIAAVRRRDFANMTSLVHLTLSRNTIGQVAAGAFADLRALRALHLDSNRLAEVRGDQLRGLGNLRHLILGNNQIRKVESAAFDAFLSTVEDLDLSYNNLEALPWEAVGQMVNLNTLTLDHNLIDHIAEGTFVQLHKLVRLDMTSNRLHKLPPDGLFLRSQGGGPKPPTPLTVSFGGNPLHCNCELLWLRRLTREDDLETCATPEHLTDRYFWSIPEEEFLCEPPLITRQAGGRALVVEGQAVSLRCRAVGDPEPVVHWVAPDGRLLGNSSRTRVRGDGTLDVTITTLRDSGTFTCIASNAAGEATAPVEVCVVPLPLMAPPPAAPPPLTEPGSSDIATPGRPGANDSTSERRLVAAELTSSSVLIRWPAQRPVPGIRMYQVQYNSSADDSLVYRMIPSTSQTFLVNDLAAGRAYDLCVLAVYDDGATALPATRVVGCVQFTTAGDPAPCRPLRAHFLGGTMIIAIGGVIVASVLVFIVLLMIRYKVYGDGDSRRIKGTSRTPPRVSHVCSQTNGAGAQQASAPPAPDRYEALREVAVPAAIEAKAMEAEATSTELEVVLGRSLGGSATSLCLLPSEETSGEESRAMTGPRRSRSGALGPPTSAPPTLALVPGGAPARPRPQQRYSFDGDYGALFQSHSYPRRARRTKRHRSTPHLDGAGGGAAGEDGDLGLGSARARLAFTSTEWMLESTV

[1] = target: T4, SALM3, EGFP- or Myc-tagged full-length (Fig. 4e) (UniProt Q80XU8)
T4 sequence: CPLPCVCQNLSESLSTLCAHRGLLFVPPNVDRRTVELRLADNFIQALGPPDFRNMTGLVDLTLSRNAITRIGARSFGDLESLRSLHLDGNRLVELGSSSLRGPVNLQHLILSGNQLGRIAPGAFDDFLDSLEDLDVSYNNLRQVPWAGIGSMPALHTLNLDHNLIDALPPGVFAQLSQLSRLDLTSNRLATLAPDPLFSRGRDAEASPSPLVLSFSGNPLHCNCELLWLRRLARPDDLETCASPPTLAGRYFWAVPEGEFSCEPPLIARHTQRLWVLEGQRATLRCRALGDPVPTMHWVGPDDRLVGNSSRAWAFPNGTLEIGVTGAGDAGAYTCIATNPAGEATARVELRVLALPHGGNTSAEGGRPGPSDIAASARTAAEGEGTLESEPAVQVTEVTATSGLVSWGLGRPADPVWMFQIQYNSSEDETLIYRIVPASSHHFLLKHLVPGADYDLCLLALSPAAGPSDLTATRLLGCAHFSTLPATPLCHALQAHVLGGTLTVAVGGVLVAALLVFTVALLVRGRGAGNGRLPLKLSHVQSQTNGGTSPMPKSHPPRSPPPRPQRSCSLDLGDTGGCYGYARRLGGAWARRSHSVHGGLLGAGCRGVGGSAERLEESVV

[2] = target: T5, SALM5, EGFP- or Myc-tagged full-length (Fig. 4f) (UniProt Q8BXA0)
T5 sequence: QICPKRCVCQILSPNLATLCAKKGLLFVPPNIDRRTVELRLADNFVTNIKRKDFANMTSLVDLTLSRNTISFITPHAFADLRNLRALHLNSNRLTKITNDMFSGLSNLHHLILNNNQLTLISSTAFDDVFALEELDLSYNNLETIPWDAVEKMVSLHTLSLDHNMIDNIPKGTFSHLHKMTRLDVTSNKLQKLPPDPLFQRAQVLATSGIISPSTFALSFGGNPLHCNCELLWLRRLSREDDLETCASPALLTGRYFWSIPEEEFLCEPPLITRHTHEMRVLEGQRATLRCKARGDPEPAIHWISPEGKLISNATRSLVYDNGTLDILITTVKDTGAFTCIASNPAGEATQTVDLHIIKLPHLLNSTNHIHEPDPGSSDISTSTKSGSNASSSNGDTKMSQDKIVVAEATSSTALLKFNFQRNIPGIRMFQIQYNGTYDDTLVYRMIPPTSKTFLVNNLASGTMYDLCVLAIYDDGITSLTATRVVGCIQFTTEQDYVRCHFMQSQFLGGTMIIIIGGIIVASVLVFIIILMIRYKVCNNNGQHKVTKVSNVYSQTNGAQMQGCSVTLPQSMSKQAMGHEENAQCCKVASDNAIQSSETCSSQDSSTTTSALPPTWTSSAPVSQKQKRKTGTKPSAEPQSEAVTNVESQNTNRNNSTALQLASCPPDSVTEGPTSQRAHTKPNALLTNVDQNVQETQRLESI

[3] = target: T6, SALM2, EGFP- or Myc-tagged full-length (Fig. 4d) (UniProt Q2WF71)
T6 sequence: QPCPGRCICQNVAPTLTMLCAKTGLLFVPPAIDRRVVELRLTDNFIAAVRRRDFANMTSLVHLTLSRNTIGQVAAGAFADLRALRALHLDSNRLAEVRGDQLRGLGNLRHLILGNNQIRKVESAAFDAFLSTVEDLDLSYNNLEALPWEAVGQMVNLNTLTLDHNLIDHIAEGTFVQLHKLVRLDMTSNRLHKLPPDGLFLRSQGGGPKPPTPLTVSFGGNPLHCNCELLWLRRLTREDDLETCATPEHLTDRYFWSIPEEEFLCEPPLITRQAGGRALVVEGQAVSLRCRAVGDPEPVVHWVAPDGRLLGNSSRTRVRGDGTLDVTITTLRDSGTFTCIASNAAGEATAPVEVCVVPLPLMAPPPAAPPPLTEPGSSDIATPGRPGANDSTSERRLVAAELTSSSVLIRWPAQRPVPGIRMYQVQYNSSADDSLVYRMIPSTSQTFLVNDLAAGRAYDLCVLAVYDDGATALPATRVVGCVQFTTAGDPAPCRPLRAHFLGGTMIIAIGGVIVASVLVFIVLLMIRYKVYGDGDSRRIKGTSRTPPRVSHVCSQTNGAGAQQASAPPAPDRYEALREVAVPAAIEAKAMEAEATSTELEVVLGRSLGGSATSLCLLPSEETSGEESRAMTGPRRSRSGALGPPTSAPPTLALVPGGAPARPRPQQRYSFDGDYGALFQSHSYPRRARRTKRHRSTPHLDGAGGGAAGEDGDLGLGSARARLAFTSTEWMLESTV

Measured: binding

B1: HA-SALM4-ΔFNIII (aa 28–400, 530–627) (domain or fragment, UniProt Q8BLY3)
chain: CPRRCRCQTQSMPLSVLCPGAGLLFVPPSLDRRAAELRLADNFIAAVRRRDLANMTGLLHLSLSRNTIRHVAAGAFADLRALRALHLDGNRLTSLGEGQLRGLVNLRHLILSNNQLAALAAGALDDCAETLEDLDLSYNNLEQLPWEALGRLGNVNTLGLDHNLLASVPAGAFSRLHKLARLDMTSNRLTTIPPDPLFSRLPLLARPRGSPASALVLAFGGNPLHCNCELVWLRRLAREDDLEACASPPALGGRYFWAVGEEEFVCEPPVVTHRSPPLAVPAGRPAALRCRAVGDPEPRVRWVSPQGRLLGNSSRARAFPNGTLELLVTEPEDGGTFTCIAANAAGEATAAVELTVGPPPPPQLANSTSCDPPPHAPFLGGTMIIALGGVIVASVLVFIFVLLLRYKVHGGQPPGKAKATAPVSSVCSQTNGALGPVPSAPAPEPAAPRAHTVVQLDCEPWGPSHEPAGP
binds: SALM5-EGFP (Fig. 5e) | SALM3-EGFP (Fig. 5d) | Myc-SALM2 (Fig. 5c)

B2: HA-SALM4-ΔC44aa (aa 28–583) (domain or fragment, UniProt Q8BLY3 28-583)
chain: CPRRCRCQTQSMPLSVLCPGAGLLFVPPSLDRRAAELRLADNFIAAVRRRDLANMTGLLHLSLSRNTIRHVAAGAFADLRALRALHLDGNRLTSLGEGQLRGLVNLRHLILSNNQLAALAAGALDDCAETLEDLDLSYNNLEQLPWEALGRLGNVNTLGLDHNLLASVPAGAFSRLHKLARLDMTSNRLTTIPPDPLFSRLPLLARPRGSPASALVLAFGGNPLHCNCELVWLRRLAREDDLEACASPPALGGRYFWAVGEEEFVCEPPVVTHRSPPLAVPAGRPAALRCRAVGDPEPRVRWVSPQGRLLGNSSRARAFPNGTLELLVTEPEDGGTFTCIAANAAGEATAAVELTVGPPPPPQLANSTSCDPPRDGEPDALTPPSAASASAKVADTVAPTDRGVQVTEHGATAALVQWPDQRPVPGIRMYQIQYNSSADDILVYRMIPADSRSFLLTDLASGRTYDLCVLAVYEDSATGLTATRPVGCARFSTEPALRPCAAPHAPFLGGTMIIALGGVIVASVLVFIFVLLLRYKVHGGQPPGKAKATAPVSSVC
binds: SALM5-EGFP (Fig. 5e) | SALM3-EGFP (Fig. 5d) | Myc-SALM2 (Fig. 5c)

B3: SALM4, Myc-tagged full-length (protein, UniProt Q8BLY3 17-626)
chain: SSPPQPAISSPCPRRCRCQTQSMPLSVLCPGAGLLFVPPSLDRRAAELRLADNFIAAVRRRDLANMTGLLHLSLSRNTIRHVAAGAFADLRALRALHLDGNRLTSLGEGQLRGLVNLRHLILSNNQLAALAAGALDDCAETLEDLDLSYNNLEQLPWEALGRLGNVNTLGLDHNLLASVPAGAFSRLHKLARLDMTSNRLTTIPPDPLFSRLPLLARPRGSPASALVLAFGGNPLHCNCELVWLRRLAREDDLEACASPPALGGRYFWAVGEEEFVCEPPVVTHRSPPLAVPAGRPAALRCRAVGDPEPRVRWVSPQGRLLGNSSRARAFPNGTLELLVTEPEDGGTFTCIAANAAGEATAAVELTVGPPPPPQLANSTSCDPPRDGEPDALTPPSAASASAKVADTVAPTDRGVQVTEHGATAALVQWPDQRPVPGIRMYQIQYNSSADDILVYRMIPADSRSFLLTDLASGRTYDLCVLAVYEDSATGLTATRPVGCARFSTEPALRPCAAPHAPFLGGTMIIALGGVIVASVLVFIFVLLLRYKVHGGQPPGKAKATAPVSSVCSQTNGALGPVPSAPAPEPAAPRAHTVVQLDCEPWGPSHEPAGP
binds: [1] | [2] | [3]

— paper PMC4974644
